Among all 43,000 compounds or so, about 200 (0.47%) were called active. Another 12% or so got no clear call; they are omitted. Calls come from the whole dose curve; as a rule, active = well fitted cell-killing curve with a large enough effect; inconclusive = small, poorly fitted or top-dose-only effect, or effect the other way; inactive = flat fitted curve, though single readings scatter. The list shows a part of the results.
experiment: Cell viability qHTS assay in S16 Pmp22-F2sN cells; conditions: S16 Pmp22-F2sN Schwann cells (luciferase reporters placed in the Pmp22 gene) viability, CellTiter-Glo, 24 h; series mostly up to 57.5 µM; activity change, negative = cytotoxicity: at the top concentration; note: nearly all actives have a fitted effect of over 65% in size
In short: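 Luminescence from CellTiter-Glo, read by CCD camera after a 15 min room-temperature incubation, served as the viability signal. Reporter Schwann cells (S16 Pmp22-F2sN) had been treated with pin-transferred compounds for 24 h at 37C.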
% is set by controls: 0 for no effect and ±100 for the full control effect.

| Structure (SMILES) | activity change, negative = cytotoxicity |
| --- | --- |
| COc1cccc(Cn2c(=O)n(-c3ccc(C)c(F)c3)c(=O)c3sc4ccccc4c32)c1 | inactive: 21.5% |
| Cc1ccc2oc(C(=O)N(Cc3cccc(F)c3)C3CCS(=O)(=O)C3)c(C)c2c1 (stereo unspecified) | inactive: 4.07% |
| COc1ccc(N2CCN(C(=O)c3cc(S(=O)(=O)N4CCCCCC4)cn3C)CC2)cc1 | inactive: 24.5% |
| O=C(COC(=O)C(Cc1c[nH]c2ccccc12)NC(=O)c1ccc(Br)cc1)c1ccc(Cl)cc1 (stereo unspecified) | inactive: 4.13% |
| Cc1ccc(N(CC(C)C)S(=O)(=O)c2nnc(NC(=O)c3ccco3)s2)cc1 | inactive: -0.873% |
| Cc1ccc(-c2cc(C(F)(F)F)n3nc(-c4ccc(Cl)cc4)cc3n2)cc1 | inactive: 2.57% |
| COc1ccc(CNC(=O)C2CCN(Cc3nc(-c4ccc(OC)c(OC)c4)oc3C)CC2)cc1 | inactive: 9.77% |
| COc1cccc(OC)c1C(=O)Nc1nnc(C)s1 | inactive: 8.16% |
| CSc1cccc(-c2nnc(NC(=O)c3ccc4c(c3)OCCO4)o2)c1 | inactive: -17% |
| CC(C)CC(=O)NCc1nc2cccnc2n1Cc1ccccc1 | inactive: 11.2% |
| CCOC(=O)c1cc(-c2ccccc2)n(CC(=O)Nc2ccc(OC)cc2OC)c1C | inactive: -8.12% |
| COc1ccc(-c2ccc(NS(=O)(=O)c3cccc(Cl)c3)cc2)nn1 | inactive: 4.24% |
| COc1cccc(CNC(=O)CSc2c3c(nc4ccc(Cl)cc24)CCCC3)c1OC | inactive: 23.6% |
| CCOC(=O)c1c(C)[nH]c(C)c1S(=O)(=O)N1CCCC(C(=O)Nc2ccc(OC)c(Cl)c2)C1 (stereo unspecified) | inactive: 29.3% |
| O=C(Cn1ncc2c3ccccc3n(Cc3ccccc3F)c2c1=O)NCCc1ccc(Cl)cc1 | inactive: 7.11% |
| Cc1ccccc1Nc1nnc(-c2ccc(C)c(S(=O)(=O)N3CCOCC3)c2)c2ccccc12 | inactive: 7.16% |
| COc1ccc(CN2COc3ccc4c(-c5ccccc5)cc(=O)oc4c3C2)cc1 | inactive: 15.6% |
| Cc1cccc(N2CCN(C(=O)C3CCN(S(=O)(=O)c4cccs4)CC3)CC2)c1C | inactive: -0.811% |
| COc1ccc(OC)c(NC(=O)Cn2cnc3c(oc4ccccc43)c2=O)c1 | inactive: -3.17% |
| CC1=C(C(=O)Nc2ccc(C)cc2C)C(c2ccc(Cl)cc2)n2nc(C(=O)OC(C)C)nc2N1 (stereo unspecified) | inactive: -3.42% |
| O=C(Cn1cnc(S(=O)(=O)N2CCCC2)c1)Nc1ccc(OC(F)(F)F)cc1 | inactive: 27.5% |
| CCc1ccc(NC(=O)c2cc3sc(Cl)cc3n2C)cc1 | inactive: 1.45% |
| COc1cccc(C(=O)Nc2c(C(=O)NC(C)(C)C)oc3ccccc23)c1 | inactive: 14.9% |
| Cc1ccc(CCNC(=O)Cn2c(-c3cccs3)cc3cc(F)ccc32)cc1 | inactive: 12.9% |

| Structure (SMILES) | activity change, negative = cytotoxicity |
| --- | --- |
| CN(C)c1ccc(CNC(=O)CN(C)S(=O)(=O)c2ccc3c(c2)c(=O)n(C)c(=O)n3C)cc1 | inactive: 14.6% |
| Cc1ccc(CNC(=O)Cn2ccn(-c3ccc(C)c(C)c3)c(=O)c2=O)cc1 | inactive: -8.09% |
| COc1ccc(CC(=O)NCc2ccc3c(c2)CCN3C(=O)c2ccc(C)cc2)cc1OC | inactive: -24.8% |
| O=C(Cn1ncc2c(=O)oc3ccccc3c21)NCc1ccccc1Cl | inactive: 14.2% |
| CCc1cccc(NC(=O)Cn2c(=O)n(CCc3ccc(OC)c(OC)c3)c(=O)c3ccccc32)c1 | inactive: 13.8% |
| CCCCOc1ccc(S(=O)(=O)N2CCN(c3ccccc3OCC)CC2)cc1 | inactive: -0.799% |
| COc1ccc(Cl)cc1NC(=O)CN(C)S(=O)(=O)c1ccc(Br)s1 | inactive: -24.9% |
| O=C(NCC(c1ccccc1)c1ccccc1)c1nn(-c2ccccc2Cl)nc1CO | inactive: -10.8% |
| CCOc1ccccc1NC(=O)c1sc(-n2nc(C)c(CCC(C)C)c2C)nc1C | inactive: -11.9% |
| Cc1ccc(Cl)cc1N1CCN(C(=O)c2ccc3c(c2)N(Cc2ccccc2F)C(=O)c2ccccc2S3(=O)=O)CC1 | inactive: 15% |
| Cc1nc2c(C(=O)N(C)Cc3ccccc3)c[nH]n2c(=O)c1Cc1ccc(Cl)cc1 | inactive: 5.56% |
| O=C(Nc1cccc(Cl)c1)Nc1ccccc1OCc1cc(=O)n2ccccc2n1 | inactive: 12.1% |
| CCC1CCCCN1CCCNC(=O)CN1C(=O)CSc2ccc(S(=O)(=O)N3CCC(C)CC3)cc21 (stereo unspecified) | inactive: -27.4% |
| Cc1cc(C)c2oc(-c3cccc(NC(=O)c4ccco4)c3)nc2c1 | inactive: 4.28% |
| COCCCNC(=O)CCC(=O)N1Cc2ccccc2Oc2ncccc21 | inactive: -7.22% |
| Cc1cc2c(c3oc(=O)c4ccccc4c13)CN(Cc1ccc(F)cc1)CO2 | inactive: 0.432% |
| Cc1ccc(N2CCN(C(=O)CCc3c(C)nc4c(c3C)c(=O)n(C)c(=O)n4C)CC2)c(C)c1 | inactive: 11.7% |
| O=C(CCn1cnc2ccccc2c1=O)NCc1ccccc1 | inactive: 1.3% |
| O=S(=O)(c1ccc2[nH]c3c(c2c1)CCCCC3)N1CCN(c2ccccc2)CC1 | inactive: -7.48% |
| COc1cccc(CNC(=O)c2cc(-c3cccc(OC)c3)n[nH]2)c1 | inactive: -16.6% |
| Cc1cccc(C)c1NC(=O)c1oc2c(c1C)-c1nn(Cc3ccccc3)cc1CC2 | inactive: -14.2% |
| CCCSCCCNC(=O)CN1C(=O)COc2ccc(S(=O)(=O)N3CCC(C)CC3)cc21 | inactive: 8.81% |
| CN1C(=O)Cc2cc(S(=O)(=O)CCC(=O)Nc3ccccc3)ccc21 | inactive: -7.26% |
| CCN(CC)CCCNC(=O)Cn1nc(N2CCN(c3ccccc3OC)CC2)ccc1=O | inactive: 3.25% |

| Structure (SMILES) | activity change, negative = cytotoxicity |
| --- | --- |
| COc1cc(OC)c(N(C)C(=O)c2nn(C)c3c2CSc2ccccc2-3)cc1Cl | inactive: 5.91% |
| CC(=O)C1=C(c2ccc(Cl)c(Cl)c2)N(C(C)=O)n2c(C)nnc2S1 | inactive: -10.8% |
| O=C(Nc1ccccc1Br)N1CCN2CCCCC2C1 (stereo unspecified) | inactive: 7.99% |
| Cc1ccc(S(=O)(=O)Nc2ccc3c(c2)c(C(=O)OC(C)C)c(C)n3S(=O)(=O)c2ccc(C)cc2)cc1 | inactive: 0.736% |
| COc1ccc(S(=O)(=O)NCCc2cn3ccsc3n2)cc1 | inactive: 18% |
| CC(=O)c1ccc(NC(=O)c2ccc(CN3C(=O)CCn4nc(C)cc43)cc2)cc1 | inactive: -0.163% |
| O=S(=O)(Nc1ccc(Br)cc1)c1ccc2nc(-c3ccccc3)[nH]c2c1 | inactive: -29.6% |
| Cc1ccc(CCNC(=O)CN2CCN(Cc3ccc(Cl)cc3)C2=O)cc1 | inactive: 10.2% |
| COc1ccc(CCNC(=O)Cn2ccc3cc(S(=O)(=O)N4CCCCC4)ccc32)cc1OC | inactive: -3.64% |
| COC(=O)c1ccccc1NC(=O)c1cc(=O)c2ccc(C)c(C)c2o1 | inactive: -28.8% |
| Cc1nn2c(=O)cc(COC(=O)c3ccc(F)cc3)nc2s1 | inactive: -3.6% |
| CCc1ccc(NC(=O)CN2C(=O)CCSc3ccc(S(=O)(=O)N4CCCC4)cc32)cc1 | inactive: 0.936% |
| COc1ccc(C(=O)c2cn(Cc3cccc(C)c3)c3cc4c(cc3c2=O)OCCO4)cc1OC | inactive: -6.93% |
| Cc1nnc2c3ccccc3nc(N3CCN(c4cccc(Cl)c4)CC3)n12 | inactive: -12% |
| CCOCCCn1c(=N)c(C(=O)NC2CCCC2)cc2c(=O)n3cccc(C)c3nc21 | inactive: -3.32% |
| Cc1cccc(-n2ncc3c(Nc4c(C)cc(C)cc4C)ncnc32)c1 | inactive: -18% |
| Cc1noc(Cn2c(=O)c3ccccc3n(CC(=O)Nc3ccccc3C(F)(F)F)c2=O)n1 | inactive: 2.8% |
| CCOC(=O)c1cccc(Nc2cc(C)nc(C)n2)c1 | inactive: 0.756% |
| COc1ccccc1CNC(=O)CN1C(=O)CCCc2ccccc21 | inactive: -4.34% |
| CCc1ccc(NC(=O)c2oc3c(c2C)-c2[nH]ncc2CC3)cc1 | inactive: -7.04% |
| CCc1ccc(NC(=O)c2ccc3c(c2)c(C)c(C)n3Cc2ccccc2)cc1 | inactive: -8.07% |
| CCCCOc1ccc(C2c3c(oc4ccccc4c3=O)C(=O)N2c2nc(C)c(C(=O)OCC)s2)cc1OC (stereo unspecified) | inactive: -8.86% |
| Cn1c(C(=O)N2CCC(C(=O)NCCc3ccc(S(N)(=O)=O)cc3)CC2)cc2sccc21 | inactive: -8.78% |
| CCOC(=O)c1ccc(NC(=O)c2cc3c(n(-c4ccc(C)cc4)c2=O)CC(C)(C)CC3=O)cc1 | inactive: -2.22% |

| Structure (SMILES) | activity change, negative = cytotoxicity |
| --- | --- |
| COc1ccc(-c2nc3scc(CCNS(=O)(=O)c4cccc(C(C)=O)c4)n3n2)cc1 | inactive: -5.47% |
| CCOC(=O)c1cccc(NC(=O)CCNS(=O)(=O)c2cccc3nonc23)c1 | inactive: 27.1% |
| O=C(CSc1nc2c(oc3ccccc32)c(=O)[nH]1)Nc1cccc(Cl)c1 | inactive: -8.22% |
| CC1=C(c2ccc(Cl)cc2)S(=O)(=O)NC1=NCc1ccc(C)cc1 | inactive: 17.9% |
| CN(C)c1cccc(C(=O)Nc2ccc(-c3nc4ccccc4s3)cc2)c1 | inactive: -2.49% |
| CC12CN3CC(C)(CN(C1)C3c1ccc(OCc3ccccc3)cc1)C2=O (stereo unspecified) | inactive: 9.55% |
| Cc1ccc(NC(=O)CSc2nnc(C)c(=O)[nH]2)cc1 | inactive: -3.75% |
| CCc1ccc(NC(=O)Cn2c(=O)ccc3cc(S(=O)(=O)N4CCCC4)ccc32)cc1 | inactive: 6.94% |
| Cc1cc(C)c(S(=O)(=O)Nc2cccc(-c3cn4ccccc4n3)c2)c(C)c1 | inactive: -19.9% |
| Cc1ccc(NC(=O)Cn2c(=O)n(CCc3ccccc3)c(=O)c3c4c(sc32)CCCC4)cc1C | inactive: 10.9% |
| Cc1ccc(C)c(CN2C(=O)c3ccccc3S(=O)c3ccc(C(=O)NCc4ccco4)cc32)c1 (stereo unspecified) | inactive: -1.86% |
| COc1ccc(Cn2ccc3nc(C)c(C(=O)Nc4ccc(OC)cc4OC)cc3c2=O)cc1 | inactive: 7.59% |
| COc1cccc(NC(=O)c2ccc(CNS(=O)(=O)c3ccc4c(c3)C(C)(C)C(=O)N4C)cc2)c1 | inactive: -20.6% |
| O=C(/C=C/c1ccco1)Nc1ccc(Cl)c(-c2nc3cc(Cl)ccc3o2)c1 | inactive: -21.1% |
| Cc1c(Cl)cccc1NC(=O)CSc1cc(-c2ccccc2)ncn1 | inactive: 20.3% |
| Cc1ccc(NC(=O)C2CCN(c3nn4c(=O)cc(C)nc4s3)CC2)cc1 | inactive: 2.97% |
| CC(C)n1c(=O)c2oc3ccccc3c2n(Cc2ccccc2F)c1=O | inactive: 1.19% |
| Cc1cc2ccccc2n1-c1ccc(C(=O)N2CCC(C(=O)NCc3ccc(F)cc3)CC2)s1 | inactive: -16.6% |
| COc1ccc(CNC(=O)Cn2ccc3cc(S(=O)(=O)N4CCCCCC4)ccc32)c(OC)c1 | inactive: -16.5% |
| Cc1ccc(N2CC(NC(=O)/C=C\c3ccc4c(c3)OCO4)CC2=O)cc1 (stereo unspecified) | inactive: 1.74% |
| O=C(C1CC1)N1CCc2cc(Br)cc(S(=O)(=O)N3CCN(c4ccccc4F)CC3)c21 | inactive: 9.96% |
| O=C(Cc1csc2nc(-c3ccccc3)cn12)NCc1ccc(F)cc1 | inactive: 13.4% |
| CCOc1ccccc1NC(=O)N1CCCn2nc(C)cc21 | inactive: 2.94% |
| O=C(NCC(c1cccs1)S(=O)(=O)c1cccs1)c1ccc(C(F)(F)F)cc1 (stereo unspecified) | inactive: 10.8% |

— PubChem BioAssay AID1508642 (National Center for Advancing Translational Sciences (NCATS), 2021)
